In PubChem BioAssay AID360 (National Center for Advancing Translational Sciences (NCATS), 2006):
Among all 48,000 compounds or so, about 550 (1.1%) were called active. Not shown: some 4% with an inconclusive outcome. Cut-off read from the data, not from the text of the source: active = potency below about 15 µM; inconclusive = mostly about 16 µM to 33 µM; inactive = weaker than that. Some of the results follow.

These molecules were tested against Lysosomal acid glucosylceramidase (Homo sapiens) (UniProt P04062) (assay: Glucocerebrosidase). Details: purified enzyme, resorufin glucoside fluorescence (screen aimed at inhibitors), 20 min.
Outline: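 Compounds titrated against 0.2 nM normal enzyme, 30 uM resorufin beta-D-glucopyranoside substrate, citrate/phosphate buffer with taurocholate and tween-20, pH 5.9. Reaction ran 20 min at room temperature; fluorescence (Ex 548/Em 600) gave AC50.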
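Note: the screen sought inhibitors.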
Potency is the fitted concentration of half-maximal effect.

Sequence of UniProt P04062 (P04062 whole entry, looked up): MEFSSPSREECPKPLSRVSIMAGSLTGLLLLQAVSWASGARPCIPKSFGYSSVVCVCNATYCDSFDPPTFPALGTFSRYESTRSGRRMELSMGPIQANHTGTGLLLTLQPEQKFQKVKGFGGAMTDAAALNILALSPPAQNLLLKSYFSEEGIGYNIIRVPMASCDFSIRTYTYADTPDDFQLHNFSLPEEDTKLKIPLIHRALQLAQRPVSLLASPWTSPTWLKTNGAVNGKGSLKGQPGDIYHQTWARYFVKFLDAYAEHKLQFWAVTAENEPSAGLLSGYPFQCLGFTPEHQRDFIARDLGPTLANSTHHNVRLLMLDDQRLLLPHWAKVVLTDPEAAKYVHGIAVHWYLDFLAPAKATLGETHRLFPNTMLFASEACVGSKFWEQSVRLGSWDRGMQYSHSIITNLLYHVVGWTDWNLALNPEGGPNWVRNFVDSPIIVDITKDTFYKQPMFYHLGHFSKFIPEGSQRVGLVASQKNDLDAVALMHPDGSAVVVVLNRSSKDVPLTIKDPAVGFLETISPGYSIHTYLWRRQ

Potency, inactive:
COc1ccc(NC(=O)NCCN2CCc3ccccc3C2)cc1 > 76.9 µM, CCOC(=O)c1cc2cc(F)ccc2nc1C > 76.9 µM, CC(C)(C)n1ncc2c(=O)n(CC(=O)NCCc3ccccc3)cnc21 > 76.9 µM, Cn1c(SCC(=O)c2ccccc2F)nnc1C1CC1 > 76.9 µM, CC(C)Cn1c(N)c(C(=O)COC(=O)C2=COCCO2)c(=O)n(C)c1=O > 76.9 µM, COC(=O)c1cccc(NC(=O)CN2CCOCC2)c1 > 76.9 µM, CCOC(=O)COc1cc(=O)n(CC)c2ccccc12 > 76.9 µM, COCCn1nnnc1C(c1ccccc1Cl)N1CCN(c2ccccc2OC)CC1 (stereo unspecified) > 76.9 µM, CCNC(=O)CC1C(=O)N(c2ccc(C)cc2)C(=O)N1Cc1ccccn1 (stereo unspecified) > 76.9 µM, CCOc1ccc(NC(=O)CSc2nnc(-c3ccco3)n2C)cc1 > 76.9 µM, CCOc1ccc(NC(=O)CCNS(=O)(=O)c2ccc3c(c2)c(=O)n(C)c(=O)n3C)cc1 > 76.9 µM, Cc1nccn1CCc1nc(N)nc(N)n1 > 76.9 µM, CCn1cc(C(=O)NCc2cccnc2)c2cc(OC)c(OC)cc2c1=O > 76.9 µM, c1ccc(Cc2nn3c(Cn4nnc5ccccc54)nnc3s2)cc1 > 76.9 µM, CCn1nc(C(=O)NC2=NCCS2)c2ccccc2c1=O > 76.9 µM, CCOC(=O)c1cc2c(n(-c3ccccc3)c1=O)CC(C)(C)CC2=O > 76.9 µM, CCN(CC)CCN1C(=O)C(=O)/C(=C(/O)c2c(C)[nH]c(C(=O)OC)c2C)C1c1cccnc1 (stereo unspecified) > 76.9 µM, O=C(OCC(=O)c1cccs1)c1ccc(NC(=O)c2ccco2)cc1 > 76.9 µM, O=C(OCC(=O)N(C1CCCCC1)C1CCCCC1)c1ccncc1, FC(F)(F)c1ccc(N2CCOCC2)c(Nc2nc3ccccc3n3cnnc23)c1, O=C(NC1CCCCNC1=O)c1ccc(Cl)cc1 (stereo unspecified) > 76.9 µM, Cc1cc(NC(=O)CSc2ccc(-c3nc4cc(C)c(C)cc4[nH]3)cn2)no1 > 76.9 µM, Cc1ccc(NC(=O)c2cccc(Cl)c2)nc1 > 76.9 µM, COc1ccc(OC)c(C(=O)CSc2nc3ncccc3[nH]2)c1 > 76.9 µM, COc1cc(C(=O)NC2CC3CCCC(C2)N3C2CC2)cc(OC)c1OC (stereo unspecified) > 76.9 µM, Nc1nc(NC(=O)c2cccnc2)nn1-c1ccccc1 > 76.9 µM, COc1ccc(C)cc1NC(=O)CN1CCN(S(=O)(=O)c2ccc(C(C)C)cc2)CC1, O=C(Nc1nncs1)C1(c2ccccc2)CCCC1 > 76.9 µM, NC(=O)c1ccccc1NS(=O)(=O)c1cccs1 > 76.9 µM, COc1ccc(-c2nn(-c3ccccc3)cc2C(=O)Nc2nc(CC(C)=O)ns2)cc1 > 76.9 µM, C=CCN1C(=O)CSc2ccc(C(=O)OCC)cc21 > 76.9 µM, CCCCN(C)C(=O)c1oc2ccc(S(=O)(=O)N3CCCCCC3)cc2c1C > 76.9 µM, CCCn1c(SCC(=O)Nc2nc3c(s2)CCCC3)nc2c1c(=O)n(C)c(=O)n2C > 76.9 µM, CCOC(=O)c1nnn(-c2nonc2N)c1CN(C)C1CCCCC1, CCOC(=O)c1cn(CC)c2cc(N3CCCCC3)c(F)cc2c1=O > 76.9 µM, CC(C)N(C(=O)COC(=O)c1ccc(O)cc1)C(C)C > 76.9 µM, CC1=C(C(N)=O)C(c2cccnc2)n2nc(SCc3ccccc3Cl)nc2N1 (stereo unspecified) > 76.9 µM, O=c1oc2c(CN3CCCCC3)c(O)ccc2cc1-c1nc2ccccc2[nH]1 > 76.9 µM, Cn1nnc2cc(C(=O)N3CCC(c4ccccc4)C3)ccc21 (stereo unspecified) > 76.9 µM, Cc1nc2cc(N3CCOCC3)c(NC(=O)C3CC3)cc2c(=O)n1Cc1ccccc1 > 76.9 µM, COc1ccc(S(=O)(=O)N2CCCN(CC(=O)Nc3cc(NC(C)=O)ccc3OC)CC2)cc1 > 76.9 µM, O=C(CCCCCN1C(=O)c2ccccc2C1=O)Nc1ccc(S(=O)(=O)N2CCCCC2)cc1 > 76.9 µM, COC(=O)Cc1n[nH]c(=S)[nH]c1=O > 76.9 µM, COc1cc2c(cc1OC)-c1cc(N3CCCc4ccccc43)nc(=O)n1CC2 > 76.9 µM, CSc1ccc(NC(=O)NCCCN2CCN(c3ccccc3F)CC2)cc1 > 76.9 µM, CCN(CC)S(=O)(=O)c1ccc(Cl)c(C(=O)NCC2CCCO2)c1 (stereo unspecified) > 76.9 µM, O=C(NC1CCCC1)C1CCCN1C(=O)Nc1ccccc1Cl (stereo unspecified) > 76.9 µM, COc1ccc(-c2ocnc2C(=O)Nc2ccccc2N2CCCCC2)cc1 > 76.9 µM, COc1cc(C(=O)O)ccc1OC(C)=O, O=C(CCc1nc(-c2ccccc2F)no1)NCc1ccco1 > 76.9 µM, COc1cc(OC)cc(OCC(O)Cn2cnc(-c3ccccc3)c2)c1 (stereo unspecified) > 76.9 µM, O=C(CN(Cc1cccs1)C(=O)CNS(=O)(=O)c1ccc(F)cc1)NCc1ccco1 > 76.9 µM, Cn1c(=O)[nH]c(=O)c2c1nc(Sc1nc3ccccc3s1)n2Cc1ccccc1 > 76.9 µM, CCCn1c(=S)[nH]c2cc(C(=O)N3CCN(c4ccccc4OC)CC3)ccc2c1=O > 76.9 µM, COc1ccc(NC(=O)C2CCCN(S(=O)(=O)c3c(C)n[nH]c3C)C2)c(OC)c1 (stereo unspecified) > 76.9 µM, O=C(CSc1nnc(-c2ccccc2)o1)NC1CCCCC1 > 76.9 µM, Cc1ccc(-c2csc3nnc(SCC(=O)Nc4nsc(-c5ccccc5)n4)n23)cc1, CCCc1nc2ccccc2c(=O)n1NC(=O)c1c(O)c2cccc3c2n(c1=O)CCC3 > 76.9 µM, CC1(C)CC(=O)C(CC(=O)Nc2ccc(S(N)(=O)=O)cc2)=C(O)C1 > 76.9 µM, CN1CCC(OC(=O)C23CCC(C)(C(=O)O2)C3(C)C)CC1 (stereo unspecified) > 76.9 µM, Cc1cc(-c2nc3ncccc3o2)ccc1N > 76.9 µM, COc1ccc(CC(=O)OCC(=O)Nc2c(C)n(C)n(-c3ccccc3)c2=O)cc1 > 76.9 µM, O=C(CC1=NC2(CCCC2)Cc2ccccc21)N1CCOCC1 > 76.9 µM, CC(C)(C)CC(=O)N1CCC(c2nc3c(nnn3Cc3c(F)cccc3Cl)c(=O)[nH]2)CC1, COC(=O)c1ccc(NC(=O)CN2CCOCC2)cc1 > 76.9 µM, CCN1CC2CCCC3(C1)C(=O)NC1(CCCCC1)N=C23 (stereo unspecified) > 76.9 µM, CCN(CC(=O)Nc1ccc(OC)c(OC)c1)S(=O)(=O)c1ccc(C)cc1 > 76.9 µM, COc1ccccc1N(C)S(=O)(=O)c1ccc(C(=O)OCC(=O)NCc2ccco2)cc1 > 76.9 µM, CCOCCCNC(=O)C1c2ccccc2C(=O)N2CCc3ccccc3C12 (stereo unspecified) > 76.9 µM, COc1cc2cc(CN(CCCO)S(=O)(=O)c3ccccc3)c(=O)[nH]c2cc1OC > 76.9 µM, Cn1c(=O)cc(OCC(=O)NCc2ccccn2)c2ccccc21 > 76.9 µM, COc1ccc(CCNC(=O)CN(C2CCCCC2)S(C)(=O)=O)cc1OC > 76.9 µM, N#Cc1cc2c(=O)n3ccccc3nc2n(Cc2cccnc2)c1=O > 76.9 µM, Cc1cccc(CCNC(=O)C2CCCN(S(=O)(=O)c3cccc4nsnc34)C2)c1 (stereo unspecified) > 76.9 µM, CC1CCCCC1NC(=O)CSc1nnc(COc2ccccc2Cl)o1 (stereo unspecified) > 76.9 µM, CCOc1ccc(C2=Nn3c(nnc3-c3ccccc3)SC2)cc1Cl > 76.9 µM, COc1ccccc1NC(=O)CC(NCc1ccccc1)C(=O)O (stereo unspecified) > 76.9 µM, Cc1nc2c3cnn(-c4ccc(C)c(C)c4)c3ncn2n1 > 76.9 µM, Cc1nnc(NC(=O)C2(c3ccccc3)CCOCC2)s1 > 76.9 µM, CCCOc1ccc(N2C(=O)CC(N3CCCC(C(=O)N4CCCC4)C3)C2=O)cc1 (stereo unspecified) > 76.9 µM, Cc1cccc(Cn2cnc3c(nnn3Cc3ccc(F)cc3)c2=O)c1 > 76.9 µM, Cc1ccc(-n2ncc(C#N)c2/N=C/N2CCOCC2)cc1 > 76.9 µM, COCCN1C(=O)C(CC(=O)Nc2ccc(C(C)=O)cc2)SC1=Nc1ccccc1 (stereo unspecified) > 76.9 µM, COc1ccc(Nc2nnc(Cc3ccc(Cl)cc3)c(=O)[nH]2)c(OC)c1 > 76.9 µM, Cc1cc(C)c2c(CC(=O)Nc3ccc(Cl)cn3)coc2c1 > 76.9 µM, Cc1cc(=O)[nH]c(SCc2nc3ncccn3c2Br)n1 > 76.9 µM, Cc1ccc(C(=O)Nc2nnc(-c3cccs3)s2)cc1C > 76.9 µM, CCC(=O)Nc1ccc(S(=O)(=O)Nc2cccnc2)cc1 > 76.9 µM, Cn1c(=O)c2c(nc(NCc3ccco3)n2C)n(C)c1=O > 76.9 µM, CCCc1ccc(C(C)NC(=O)c2cnccn2)cc1 (stereo unspecified) > 76.9 µM, CN(C(=O)CSc1nnnn1-c1ccccc1)C1CCCCC1 > 76.9 µM
